Data on 78 sequences can be found in the supplement of paper PMC10126150.

Values marked as one replicate rest on one cluster of the flow cell; about a third of the high ones do not repeat.

This data set has as its system ATP. In words: switch fluorescence ratio, 500 uM ATP over buffer (Cy3 cluster intensity, sum of 5 cycles each) (fold (ratio)); higher = stronger signal-on switching upon ATP binding; sequences stand for … in TCGTCGGCAGCGTCAGATGTGTATAAGAGACAGTTTTTTTTTTTTTTTTTTTTTTTTT…TC. Particulars: aptamer strand: ATP DNA aptamer (quencher-CACCTGGGGGAGTATTGCGGAGGAAGG + anchor), 100 nM annealed; ATP concentration: 500 uM; one replicate. The method, boiled down:
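Exposure to 500 uM ATP lasted 15 min at 22 °C before imaging, and a selection-buffer image was taken beforehand, for Cy3-labelled switching-strand clusters on a modified Illumina MiSeq flow-cell annealed to 100 nM quencher-labelled ATP aptamer. Five buffer/ATP cycles were run with NaOH stripping and re-annealing between them. The fluorescence ratio per cluster is summed target-cycle over summed buffer-cycle Cy3 intensity, averaged per switch-domain sequence. Clusters outside 100-1000 RFU were excluded.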
Regarding ACCACCGCGG, the switch fluorescence ratio worked out at 1.06. As to GGTACGAATT, the switch fluorescence ratio was determined as 1.03. CACCTATTAG: the switch fluorescence ratio stood at 1.04.

For the sequence AAGTCGTAAT, the switch fluorescence ratio was 0.982. Consider TTTTTCAAT, for which the switch fluorescence ratio is 1. Regarding CCGTTGTGTG, the switch fluorescence ratio was determined as 1.02.

For the sequence ATACACGCCG, the switch fluorescence ratio came out at 1.08. The value for CAGGTTTGAC was 0.915; that for ATCCTTATCA was 1.01; that for CAGTTCTCTG was 0.981. The value for TGCGTACAAG was 0.977. Under CGTCGGTGGC stands 0.97; under TTGTGTACAA, 1.02; under ATGTAAAC, 1.01. Turning to TAAAGCGTAA, the switch fluorescence ratio is 1.01. Turning to GCACTTACTG, the switch fluorescence ratio is 1.22. Turning to CGGCTACCTT, the switch fluorescence ratio worked out at 1.01. In the case of TGCATAACGC, the switch fluorescence ratio was determined as 1.03. Take GGTATAACCG: the switch fluorescence ratio was found to be 1.02. The value for TGATGATTGG was 0.993; that for AAGGATTGC was 1.01. For AACACCCAGA, the switch fluorescence ratio was 1.11. On to GGATATCCGA, for which the switch fluorescence ratio came out at 0.968. Under ACACATATAG stands 1.06; under ATGTCCGCGT, 1.15; under ACAGGGTATC, 0.958.

Turning to TCTGGGTACG, the switch fluorescence ratio came out at 1.01.

For the sequence AAGTGTCAAG, the switch fluorescence ratio was 0.998. Under TATAATTGCA stands 0.975; under GTTAGTCATG, 0.965; under ATTCTATTCC, 1.04. The value for CCCCCCAACC was 1.86; that for ATATAGAGGC was 1.06; that for TGTGAGGAAC was 1.

Turning to ATAGGCCACG, the switch fluorescence ratio is 1.02.

Turning to CGTGTCTTCA, the switch fluorescence ratio was 1.03. As for TACTGCCGGG, the switch fluorescence ratio was 1.05. GACCTGGCGC: the switch fluorescence ratio worked out at 1.08.

Consider ATCGGGCGCG, for which the switch fluorescence ratio was determined as 0.989. The value for ACATTATACT was 1.1; that for ACTCTCCGCT was 2.04. With TGTCAATCCG, the switch fluorescence ratio came to 1.02. The value for TGCATGTATC was 1.06; that for CTGCTTCATC was 1.03; that for AAGAGATCTT was 1.06. Consider GCAGAATAGG, for which the switch fluorescence ratio was found to be 0.963. The value for TCGGGGATC was 0.977; that for TGCAAGCCGG was 1.

As for ACTTCTATTG, the switch fluorescence ratio was determined as 0.991. The value for CCCTTGCTTG was 1.03; that for TGCACCAGAA was 1.03. Under ATCTATAAGG stands 0.993; under TCTTGCACTT, 1.05; under TGTGGACGTG, 1.02. Under TTAAGCATGA stands 1.05; under AAATGGGTGT, 1.05. In the case of TGAGCGTCAC, the switch fluorescence ratio was determined as 1.02. Under TCGATTCGTA stands 0.994; under ATACTTACCT, 1.32.

In the case of ATTGTGGCTT, the switch fluorescence ratio was determined as 1.03. Under ACTTGAGGCC stands 0.999. The value for GAATTTACC was 1.08; that for ATAGCTGCAG was 1.02; that for TCAGAACCGT was 0.974. Under TTGTGAGTCG stands 0.99; under TCGAACTTAT, 1.02. For AGTACGACCC, the switch fluorescence ratio amounted to 1.88. As to ACTAGTATTC, the switch fluorescence ratio was 0.999. The value for CTCAAGGAAT was 1.11; that for CTTGTAGCAT was 1.54; that for GTGCTGAGGT was 1.04. Turning to TCAAAGCCGA, the switch fluorescence ratio stood at 1.02. Take AGTACGGTCC: the switch fluorescence ratio is 1.04.

For CATCAGAAAA, the switch fluorescence ratio was determined as 1.61. Consider AGGAAAAG, for which the switch fluorescence ratio was 0.98. Regarding CAAGTATTCC, the switch fluorescence ratio worked out at 1.01.

Consider CTTTAGGCGA, for which the switch fluorescence ratio is 1.04. Under AAATTTTGAC stands 1.01.
